Whole data set: some 33,000 sequences, median “E-score (-0.5 to 0.5)” near -0.054, cut for the highest 2% near 0.39. Some of the results follow.
target: Ylr278c (UniProt Q05854); assay: PBM E-score (8-mer binding enrichment) (E-score (-0.5 to 0.5)); higher = stronger / more preferred TF binding; most listed sequences are background and not binding sites; conditions: protein concentration: 200 nM; construct: GST-DNA-binding domain
Protocol: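 Universal 'all 10-mer' protein binding microarrays (Agilent AMADID 015681) probed with GST-tagged S. cerevisiae TFs (full-length or DBD) made by in vitro transcription/translation (PURExpress), about 100-200 nM. Bound TF was detected with fluorescent anti-GST. Each ungapped 8-mer (which stands for itself and its reverse complement) is scored by the PBM enrichment score (E-score), a modified Wilcoxon-Mann-Whitney statistic from -0.5 to +0.5, computed with the Universal PBM Analysis Suite. Scale: above 0.35 generally sequence-specific binding.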

| Sequence | PBM E-score |
| --- | --- |
| CCTTAGAG | -0.172 |
| AGGCGATG | -0.0109 |
| CGAACTCG | 0.0307 |
| CCTCAGCA | -0.143 |
| GAGAGGAC | -0.0828 |
| TTATAAAA | 0.131 |
| GAACTGTC | -0.00797 |
| ACTCGCAG | -0.155 |
| CTTTAGAC | -0.335 |
| GTCTATTA | -0.113 |
| CGTGGTTC | -0.00082 |
| CACCCGTG | -0.0716 |
| AATTCCCC | 0.226 |
| TCCTGTCA | -0.161 |
| CTAGGAAG | -0.176 |
| ACTGCCCC | -0.159 |
| AAGTTCGC | -0.0704 |
| TCAGTAGA | -0.17 |
| AAGTACAT | -0.0215 |
| GGAATGAA | 0.254 |
| CAGAATAA | -0.174 |
| AGGCCTAG | -0.243 |

| Sequence | PBM E-score |
| --- | --- |
| AGTTCAAA | 0.0609 |
| AACCCTAT | -0.194 |
| GCATTATA | -0.107 |
| ATAAATAG | -0.0187 |
| CTGCAGAC | -0.108 |
| GCTCAATA | -0.0615 |
| CCAGATAC | -0.0444 |
| GGTGCGAC | 0.0456 |
| CAATCTAC | -0.167 |
| GCTCGGCA | 0.144 |
| CTGAGTAC | -0.106 |
| CCGGCATA | 0.377 |
| CGTCTAAA | -0.00647 |
| GATCGAAA | 0.0645 |
| GAAGATTC | 0.0288 |
| AAGAGTTC | -0.218 |
| GAAAGTTC | -0.00542 |
| ATAAGGTA | 0.0618 |
| TCCTTCGA | 0.037 |
| CCGCCTAA | 0.0559 |
| GCTGCCGA | 0.172 |
| GTACTCTA | -0.322 |

| Sequence | PBM E-score |
| --- | --- |
| ACAACGCT | -0.131 |
| AGTAGGTA | -0.124 |
| CTTTCGCC | 0.127 |
| GAACACTC | 0.251 |
| CGGTAGAC | 0.141 |
| AATTGCGA | 0.0801 |
| AACGTCCT | -0.129 |
| AGACAAGA | 0.0543 |
| TAACACAA | -0.0509 |
| AGCTTGGA | -0.178 |
| ACAGGTCC | 0.0268 |
| AATATCAA | -0.0465 |
| AGATCTTC | 0.0583 |
| GATAGAAC | 0.0699 |
| ATTGCTGA | -0.24 |
| ATCCGGAC | 0.424 |
| CTGTAATA | -0.00741 |
| ATAAAAAT | -0.0243 |
| CCCGGGGA | 0.358 |
| CTCGAGCC | -0.131 |
| AAGAACGC | 0.0558 |
| ATTGGTTG | -0.207 |

| Sequence | PBM E-score |
| --- | --- |
| GAATGTAC | 0.0625 |
| CCCCATTA | -0.424 |
| ATTTACAC | -0.0791 |
| CCGGCCAG | 0.309 |
| ATACTAGC | 0.0076 |
| GATGACTA | -0.221 |
| CAATGTAC | -0.256 |
| GGATCAAC | 0.0773 |
| GATTTCCC | 0.189 |
| CGGCTAAC | 0.157 |
| ATTAGGAA | 0.00282 |
| AACGTTAA | 0.0786 |
| AGCGGACT | 0.358 |
| AGGCCTAA | -0.139 |
| AACTCCCA | 0.155 |
| ACACCTTG | -0.262 |
| CCCCTGTC | -0.265 |
| CCGTTTTC | 0.112 |
| ATAATATG | 0.0874 |
| ACCTTGTA | -0.27 |
